Whole data set: some 33,000 sequences, median “E-score (-0.5 to 0.5)” near -0.056, cut for the highest 2% near 0.38. The list shows a part of the results.
Molecular target: Stb4 (UniProt P50104)
Assay: PBM E-score (8-mer binding enrichment) (E-score (-0.5 to 0.5)); higher = stronger / more preferred TF binding; most listed sequences are background and not binding sites
Conditions: protein concentration: 200 nM; construct: GST-DNA-binding domain
Experimental: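 Universal 'all 10-mer' protein binding microarrays (Agilent AMADID 015681) probed with GST-tagged S. cerevisiae TFs (full-length or DBD) made by in vitro transcription/translation (PURExpress), about 100-200 nM. Bound TF was detected with fluorescent anti-GST. Each ungapped 8-mer (which stands for itself and its reverse complement) is scored by the PBM enrichment score (E-score), a modified Wilcoxon-Mann-Whitney statistic from -0.5 to +0.5, computed with the Universal PBM Analysis Suite. Scale: above 0.35 generally sequence-specific binding.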

Sequence | PBM E-score
CGGTTTCA | 0.127
CAACCTCA | -0.307
CTACTGCC | -0.0454
GCCCTTGA | -0.209
CGGAAGAA | 0.406
TAGATGAA | -0.0575
CCCGCAAC | 0.228
AAAAACTG | -0.151
GAGGCTAA | -0.057
CGGCAGGA | 0.262
CGGTGGCC | 0.114
ACGCTAGT | -0.0234
AAGCTGCA | -0.15
AAGCCTCT | -0.297
AAGGTGAG | -0.0074
CAAATTGA | -0.17
TACGAACA | -0.191
CAGAGCTC | -0.0125
GCGCGACA | 0.127
GCACCAAC | -0.0228
GAGTTACC | 0.0098
ACGGTTCA | -0.00149
AGAGATCT | -0.196
AGGCACAA | -0.0779
GAACCGTC | 0.0614

Sequence | PBM E-score
ACGGGCTC | -0.082
GCCACTTA | -0.0691
TACGACTA | -0.155
ATCTATTG | -0.00962
GGGAATGA | 0.203
GAGGTGCC | 0.168
AGACGCGG | 0.135
CCCCACTA | -0.0244
CAGCATAC | -0.251
AGGGTAAA | 0.0281
CCAATCAA | -0.0593
AACATATG | 0.0117
AACTTAAT | 0.0351
ACATAGTA | -0.124
CCTTGAGA | -0.118
CTATGCGA | -0.201
CATGACCA | -0.136
ATAATCAT | -0.0964
ACCAGATC | -0.128
GGCTAGCA | 0.0604
CCCGTGCG | 0.22
ACAACGCG | -0.0194
CGATCCTA | -0.0737
AGGGAACC | -0.0275
GAGCTCGC | 0.0693

Sequence | PBM E-score
GAGTGTAA | -0.203
AAGGAAAA | -0.0632
CCAGTATC | 0.0117
AGGGCAAT | 0.0263
AAGGCGGC | -0.0425
CATAATCC | 0.045
AGAACAGG | -0.0996
TTGTTAAA | 0.0675
GCGCAGTA | -0.016
GATCGTCC | 0.124
ACTACGTC | -0.133
GAATGGGA | -0.0671
ATATCTTC | 0.163
CTTGCCCC | 0.0396
CCGAATTA | 0.363
CACGGTTC | -0.101
AAGCACCC | 0.0662
ACCTACCT | 0.0109
ATGACGCC | -0.199
AAATATGA | -0.262
ATCGAACG | -0.169
ACATCTGC | -0.229
CTGAGGAC | 0.00314
GGTGTCGA | -0.0694
CGGTTAGC | 0.275

Sequence | PBM E-score
CGTTAATA | -0.00514
ATTAAGTA | 0.0384
GGGACAAC | -0.0192
GGGAAAAC | 0.059
CAAGCTTA | -0.0186
GACTGTCC | -0.0945
GCCGGCCC | 0.272
CAATCAGG | -0.158
TATGACAA | -0.0924
CGTAAGTC | -0.0191
ACCATTCG | 0.0583
ATTGCAAA | -0.00619
CTTTAAAA | -0.049
AATCTGAG | -0.0921
CAATACGA | -0.0332
ACGGTCTG | -0.202
GTGCCCAA | -0.146
GAGTATAC | -0.0191
CAGCTACA | -0.175
GCCTTGCC | -0.0425
GACTAAGC | 0.0343
TACAAGTA | -0.148
GCACCGGC | 0.193
AGGGCGTA | -0.24
CGTGCCGA | 0.405

Sequence | PBM E-score
ATCCTACG | -0.216
ATAATCCA | -0.0426
ATAGGGAG | -0.196
GGGTACGA | -0.0141
ATCTACAT | -0.0272
CCCACTTC | 0.0624
ATATCCAG | -0.114
TAAACATA | -0.029
CCGGTCGA | 0.149
AAACATAA | -0.151
ATTTGTTG | 0.0322
AGGCAAAG | -0.249
AATGGAGA | -0.0369
ACTAGTCT | -0.248
CGGTAGGA | 0.136
GCCGCCGA | 0.331
ATTCACGA | -0.192
AGGGATAA | -0.158
GACCCTGC | 0.1
CTGTTATA | -0.0375
AAGCTATT | -0.0911
ACGACGAG | -0.316
GATTGTAA | 0.00432
CAACTTAG | -0.00205
AAACGGAG | 0.0887

Sequence | PBM E-score
GATGTTCA | -0.047
GACGGTCC | 0.101
ACAAGTTG | -0.115
CAACGGGC | -0.0414
GCCAACGA | -0.155
AAATTTAG | 0.024
AACAAACA | -0.0298
CCGGAGCG | 0.273
CCTGCGTC | -0.241
TCTGTTAA | -0.202
AGCACGCA | -0.155
AAACCCCT | -0.202
ACATGAGA | 0.0138
ATTAGAAC | -0.0257
ACGGGTTG | -0.0501
GGTAAGCA | -0.0989
ATGGGCGC | -0.158
CCGAAGTC | 0.417
CTACGCCA | -0.271
GCACACCC | -0.0719
ACTACGCT | -0.144
TCAGGGCA | -0.18
TGCATCCA | -0.156
AGTAGGAC | -0.0988
ACGTTAAG | -0.136

Sequence | PBM E-score
ACTGATAG | -0.247
TGCCACCA | -0.374
CGGATACC | 0.41
ACCTAAGC | 0.0479
CGTTCTCC | -0.0997
AGATCAGA | -0.379
GGTGCTCA | 0.0304
AATCTAGA | -0.126
CGGACCGC | 0.29
AGAAGCAC | 0.0152
ATCTAACG | -0.0812
TCTGGGCA | 0.172
ACAAACAG | -0.22
AGCCGACT | 0.261
CGCGCCGA | 0.281
CCCGGCCA | 0.217
GATAAGAA | 0.052
TGAAGACA | 0.00962
AGCCGTAC | 0.127
CGAGCATC | 0.174
AGAACGAA | -0.238
ACGTCCAC | -0.209

From the supplement of paper PMC3334620
